In article PMC6005816:
These are yes or no findings as the source states them, for the method shown. Binding seen in cells or lysates may run through a third protein. Some binding calls cover weakened binding; strength is not graded here. Where a sequence is shown, tags or fusion partners need not be part of it. Each block holds one molecule with its values, some of them ahead of it.

The chains behind the UniProt entries cited, without tags or fusion partners. Where a name states a change or a piece, a line headed by the entry shows the natural chain unless it says otherwise.
UniProt Q7Z3E2: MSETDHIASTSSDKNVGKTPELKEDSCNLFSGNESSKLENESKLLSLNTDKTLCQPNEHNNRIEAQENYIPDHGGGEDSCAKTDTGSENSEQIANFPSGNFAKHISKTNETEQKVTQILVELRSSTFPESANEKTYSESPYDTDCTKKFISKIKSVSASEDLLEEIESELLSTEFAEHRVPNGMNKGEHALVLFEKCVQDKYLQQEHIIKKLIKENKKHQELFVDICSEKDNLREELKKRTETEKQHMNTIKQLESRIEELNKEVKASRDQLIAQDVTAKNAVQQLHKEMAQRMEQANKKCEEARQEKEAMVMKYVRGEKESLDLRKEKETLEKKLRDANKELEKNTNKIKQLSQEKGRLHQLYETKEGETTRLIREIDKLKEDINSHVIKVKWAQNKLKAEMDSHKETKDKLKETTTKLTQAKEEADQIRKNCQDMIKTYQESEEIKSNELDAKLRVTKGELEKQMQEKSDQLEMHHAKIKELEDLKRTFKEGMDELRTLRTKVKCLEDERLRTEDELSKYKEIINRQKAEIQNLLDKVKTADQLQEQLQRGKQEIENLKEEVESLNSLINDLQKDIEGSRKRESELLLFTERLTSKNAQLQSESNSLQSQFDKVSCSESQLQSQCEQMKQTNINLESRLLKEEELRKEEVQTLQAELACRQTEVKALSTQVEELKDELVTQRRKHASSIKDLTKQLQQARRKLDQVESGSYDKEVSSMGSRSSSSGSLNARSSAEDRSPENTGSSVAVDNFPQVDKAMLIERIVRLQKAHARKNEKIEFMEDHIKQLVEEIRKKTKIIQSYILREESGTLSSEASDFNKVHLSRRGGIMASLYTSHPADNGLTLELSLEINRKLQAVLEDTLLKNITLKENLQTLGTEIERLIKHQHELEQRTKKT
UniProt O60826: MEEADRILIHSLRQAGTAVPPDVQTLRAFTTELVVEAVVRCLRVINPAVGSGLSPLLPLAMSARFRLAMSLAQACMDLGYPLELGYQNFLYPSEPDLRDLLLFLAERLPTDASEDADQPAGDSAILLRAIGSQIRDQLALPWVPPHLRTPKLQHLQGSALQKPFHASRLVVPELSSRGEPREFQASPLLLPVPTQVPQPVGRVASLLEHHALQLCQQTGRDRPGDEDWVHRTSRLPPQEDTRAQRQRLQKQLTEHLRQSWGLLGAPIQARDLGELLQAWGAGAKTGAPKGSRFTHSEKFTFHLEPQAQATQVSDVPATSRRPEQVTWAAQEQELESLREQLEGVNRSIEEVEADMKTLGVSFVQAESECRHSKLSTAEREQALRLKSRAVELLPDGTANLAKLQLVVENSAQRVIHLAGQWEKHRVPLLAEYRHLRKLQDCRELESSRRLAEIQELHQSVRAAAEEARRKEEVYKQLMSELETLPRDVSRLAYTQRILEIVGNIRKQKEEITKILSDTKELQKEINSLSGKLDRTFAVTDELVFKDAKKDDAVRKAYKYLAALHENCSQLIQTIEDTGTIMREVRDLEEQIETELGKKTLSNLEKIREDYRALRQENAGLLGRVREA

How the values were obtained:
VPS33B/GST-VIPAR complex = target: T1, VPS33B/GST-VIPAR complex (UniProt Q9H267); assay: pull-down; GST pull-down with 40–100 pmol purified VPS33B/GST-VIPAR complex as bait; myc-tagged prey made by in vitro transcription/translation in wheat germ lysate; anti-myc immunoblot; only the target purified
T1 sequence 1: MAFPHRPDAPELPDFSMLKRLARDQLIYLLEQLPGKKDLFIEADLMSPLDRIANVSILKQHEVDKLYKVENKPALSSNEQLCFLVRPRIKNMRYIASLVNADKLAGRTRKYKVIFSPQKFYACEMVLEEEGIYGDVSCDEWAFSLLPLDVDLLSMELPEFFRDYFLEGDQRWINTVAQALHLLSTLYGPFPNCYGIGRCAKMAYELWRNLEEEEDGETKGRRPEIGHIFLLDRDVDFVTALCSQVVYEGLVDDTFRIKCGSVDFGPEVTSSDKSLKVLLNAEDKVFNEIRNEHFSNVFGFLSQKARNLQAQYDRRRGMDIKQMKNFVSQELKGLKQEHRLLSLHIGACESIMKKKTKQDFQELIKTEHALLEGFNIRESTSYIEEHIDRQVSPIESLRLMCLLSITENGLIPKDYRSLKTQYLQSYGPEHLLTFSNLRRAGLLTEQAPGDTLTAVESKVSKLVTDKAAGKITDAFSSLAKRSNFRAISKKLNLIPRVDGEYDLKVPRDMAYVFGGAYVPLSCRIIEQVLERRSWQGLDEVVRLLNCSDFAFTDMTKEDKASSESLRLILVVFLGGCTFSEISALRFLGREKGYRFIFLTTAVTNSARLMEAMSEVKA
T1 sequence 2: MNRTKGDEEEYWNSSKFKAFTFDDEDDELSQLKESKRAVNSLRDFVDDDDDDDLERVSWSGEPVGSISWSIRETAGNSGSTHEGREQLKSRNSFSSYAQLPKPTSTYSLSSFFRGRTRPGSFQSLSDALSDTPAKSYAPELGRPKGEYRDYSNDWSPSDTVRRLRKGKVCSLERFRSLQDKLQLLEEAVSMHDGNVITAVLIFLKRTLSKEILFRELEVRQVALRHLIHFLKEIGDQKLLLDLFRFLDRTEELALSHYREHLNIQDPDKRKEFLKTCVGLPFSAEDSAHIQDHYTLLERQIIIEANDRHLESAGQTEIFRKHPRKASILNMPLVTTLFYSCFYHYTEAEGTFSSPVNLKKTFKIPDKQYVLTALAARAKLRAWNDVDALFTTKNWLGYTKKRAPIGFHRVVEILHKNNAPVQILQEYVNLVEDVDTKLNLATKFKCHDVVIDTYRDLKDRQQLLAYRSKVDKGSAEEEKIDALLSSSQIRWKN

VPS33B-GFP (human) = target: T2, VPS33B-GFP (human) (UniProt Q9H267); assay: co-IP; GFP-Trap on lysates of HEK293T cells co-transfected with VPS33B-GFP, FLAG-VIPAR and one myc-tagged candidate; buffer contained EDTA; immunoblotting
T2 sequence: T1 sequence 1

Molecule: myc-CCDC186 (from UniProt Q7Z3E2 1-898)
- binding (VPS33B-GFP (human)): no binding

Molecule: myc-CCDC22 T30A, in vitro translated (from UniProt O60826 1-627)
- binding (VPS33B/GST-VIPAR complex): binds

Molecule: myc-CCDC22, in vitro translated (from UniProt O60826 1-627)
- binding (VPS33B/GST-VIPAR complex): binds

B1: myc-CCDC138 (protein, UniProt Q96M89 1-665)
chain: MEPRVVKPPGQDLVVESLKSRYGLGGSCPDEYDFSNFYQSKYKRRTLTSPGDLDIYSGDKVGSSLKYSDESKHCRTPLGSLFKHVNVNCLDDELDSFHDLKKQETEEELIENDYRVSTSKITKQSFKEIEKVALPTNTTSSRPRTECCSDAGDSPLKPVSCPKSKASDKRSLLPHQISQIYDELFQIHLKLQCETAAQQKFAEELQKRERFLLEREQLLFRHENALSKIKGVEEEVLTRFQIIKEQHDAEVEHLTEVLKEKNKETKRLRSSFDALKELNDTLKKQLNEASEENRKIDIQAKRVQARLDNLQRKYEFMTIQRLKGSSHAVHEMKSLKQEKAPVSKTYKVPLNGQVYELLTVFMDWISDHHLSKVKHEESGMDGKKPQLKFASQRNDIQEKCVKLLPLMTEQLQWMPFVNIKLHEPFVKFIYWSLRQLDAGAQHSTMTSTLRRLGEDIFKGVVTKGIQDNSPQHSVENKPKTAAFFKSSNLPLRFLSTLIVLKTVTQADYLAQAFDSLCLDLKTEEGKTLFLEYQAVPVILSHLRISSKGLLSNVIDSLLQMTVESKSLQPFLEACSNSLFFRTCSVLLRAPKLDLQILEKLSIILQKLSKIKSNKKLFELFTIHLMLQEIQRTTNPEHAFLCINLNSTLFNLGLTKCNSLVSSASP
- binding (VPS33B-GFP (human)): no binding

B2: FLAG-VIPAR (protein, UniProt Q9H9C1 1-493)
chain: T1 sequence 2
- binding (VPS33B-GFP (human)): binds

B3: myc-VPS54, in vitro translated (protein, UniProt Q9P1Q0 1-977)
chain: MASSHSSSPVPQGSSSDVFFKIEVDPSKHIRPVPSLPDVCPKEPTGDSHSLYVAPSLVTDQHRWTVYHSKVNLPAALNDPRLAKRESDFFTKTWGLDFVDTEVIPSFYLPQISKEHFTVYQQEISQREKIHERCKNICPPKDTFERTLLHTHDKSRTDLEQVPKIFMKPDFALDDSLTFNSVLPWSHFNTAGGKGNRDAASSKLLQEKLSHYLDIVEVNIAHQISLRSEAFFHAMTSQHELQDYLRKTSQAVKMLRDKIAQIDKVMCEGSLHILRLALTRNNCVKVYNKLKLMATVHQTQPTVQVLLSTSEFVGALDLIATTQEVLQQELQGIHSFRHLGSQLCELEKLIDKMMIAEFSTYSHSDLNRPLEDDCQVLEEERLISLVFGLLKQRKLNFLEIYGEKMVITAKNIIKQCVINKVSQTEEIDTDVVVKLADQMRMLNFPQWFDLLKDIFSKFTIFLQRVKATLNIIHSVVLSVLDKNQRTRELEEISQQKNAAKDNSLDTEVAYLIHEGMFISDAFGEGELTPIAVDTTSQRNASPNSEPCSSDSVSEPECTTDSSSSKEHTSSSAIPGGVDIMVSEDMKLTDSELGKLANNIQELLYSASDICHDRAVKFLMSRAKDGFLEKLNSMEFITLSRLMETFILDTEQICGRKSTSLLGALQSQAIKFVNRFHEERKTKLSLLLDNERWKQADVPAEFQDLVDSLSDGKIALPEKKSGATEERKPAEVLIVEGQQYAVVGTVLLLIRIILEYCQCVDNIPSVTTDMLTRLSDLLKYFNSRSCQLVLGAGALQVVGLKTITTKNLALSSRCLQLIVHYIPVIRAHFEARLPPKQYSMLRHFDHITKDYHDHIAEISAKLVAIMDSLFDKLLSKYEVKAPVPSACFRNICKQMTKMHEAIFDLLPEEQTQMLFLRINASYKLHLKKQLSHLNVINDGGPQNGLVTADVAFYTGNLQALKGLKDLDLNMAEIWEQKR
- binding (VPS33B/GST-VIPAR complex): no binding

Results, then the molecule that gave them:

- binding (VPS33B/GST-VIPAR complex): binds
Molecule: myc-CCDC22 R321W, in vitro translated (from UniProt O60826 1-627)

- binding (VPS33B/GST-VIPAR complex): binds
Molecule: myc-CCDC22 T17A, in vitro translated (from UniProt O60826 1-627)

- binding (VPS33B/GST-VIPAR complex): binds
Molecule: myc-CCDC22 E239K, in vitro translated (from UniProt O60826 1-627)

- binding (VPS33B/GST-VIPAR complex): binds
Molecule: myc-CCDC22 R128Q, in vitro translated (from UniProt O60826 1-627)

- binding (VPS33B-GFP (human)): no binding
B4: myc-GRIPAP1 (protein, UniProt Q4V328 1-841)
chain: MAQALSEEEFQRMQAQLLELRTNNYQLSDELRKNGVELTSLRQKVAYLDKEFSKAQKALSKSKKAQEVEVLLSENEMLQAKLHSQEEDFRLQNSTLMAEFSKLCSQMEQLEQENQQLKEGAAGAGVAQAGPLVDGELLRLQAENTALQKNVAALQERYGKEAGKFSAVSEGQGDPPGGLAPTVLAPMPLAEVELKWEMEKEEKRLLWEQLQGLESSKQAETSRLQEELAKLSEKLKKKQESFCRLQTEKETLFNDSRNKIEELQQRKEADHKAQLARTQKLQQELEAANQSLAELRDQRQGERLEHAAALRALQDQVSIQSADAQEQVEGLLAENNALRTSLAALEQIQTAKTQELNMLREQTTGLAAELQQQQAEYEDLMGQKDDLNSQLQESLRANSRLLEQLQEIGQEKEQLTQELQEARKSAEKRKAMLDELAMETLQEKSQHKEELGAVRLRHEKEVLGVRARYERELRELHEDKKRQEEELRGQIREEKARTRELETLQQTVEELQAQVHSMDGAKGWFERRLKEAEESLQQQQQEQEEALKQCREQHAAELKGKEEELQDVRDQLEQAQEERDCHLKTISSLKQEVKDTVDGQRILEKKGSAALKDLKRQLHLERKRADKLQERLQDILTNSKSRSGLEELVLSEMNSPSRTQTGDSSSISSFSYREILREKESSAVPARSLSSSPQAQPPRPAELSDEEVAELFQRLAETQQEKWMLEEKVKHLEVSSASMAEDLCRKSAIIETYVMDSRIDVSVAAGHTDRSGLGSVLRDLVKPGDENLREMNKKLQNMLEEQLTKNMHLHKDMEVLSQEIVRLSKECVGPPDPDLEPGETS

- binding (VPS33B/GST-VIPAR complex): no binding
B5: myc-VPS51, in vitro translated (protein, UniProt Q9UID3 1-782)
chain: MAAAAAAGPSPGSGPGDSPEGPEGEAPERRRKAHGMLKLYYGLSEGEAAGRPAGPDPLDPTDLNGAHFDPEVYLDKLRRECPLAQLMDSETDMVRQIRALDSDMQTLVYENYNKFISATDTIRKMKNDFRKMEDEMDRLATNMAVITDFSARISATLQDRHERITKLAGVHALLRKLQFLFELPSRLTKCVELGAYGQAVRYQGRAQAVLQQYQHLPSFRAIQDDCQVITARLAQQLRQRFREGGSGAPEQAECVELLLALGEPAEELCEEFLAHARGRLEKELRNLEAELGPSPPAPDVLEFTDHGGSGFVGGLCQVAAAYQELFAAQGPAGAEKLAAFARQLGSRYFALVERRLAQEQGGGDNSLLVRALDRFHRRLRAPGALLAAAGLADAATEIVERVARERLGHHLQGLRAAFLGCLTDVRQALAAPRVAGKEGPGLAELLANVASSILSHIKASLAAVHLFTAKEVSFSNKPYFRGEFCSQGVREGLIVGFVHSMCQTAQSFCDSPGEKGGATPPALLLLLSRLCLDYETATISYILTLTDEQFLVQDQFPVTPVSTLCAEARETARRLLTHYVKVQGLVISQMLRKSVETRDWLSTLEPRNVRAVMKRVVEDTTAIDVQVGLLYEEGVRKAQSSDSSKRTFSVYSSSRQQGRYAPSYTPSAPMDTNLLSNIQKLFSERIDVFSPVEFNKVSVLTGIIKISLKTLLECVRLRTFGRFGLQQVQVDCHFLQLYLWRFVADEELVHLLLDEVVASAALRCPDPVPMEPSVVEVICERG
